Results from the supplement of paper PMC4604168 (melanoma cell lines).
The other results are listed elsewhere or left out. Repeats are few or missing, and single values can be far off.

Tests used:
Experiment in all cases: cell count relative to DMSO control; melanoma cells; higher = more viable cells
Conditions in all cases: library dose: standard library concentration; 72 h
501Mel = test system: 501Mel
A101D = test system: A101D
A2058 = test system: A2058
A375 = test system: A375
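Also: cells treated in 1,536-well plates, then fixed and DAPI-stained, with nuclei counted from automated high-throughput microscope images.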

SMILES | cell count (501Mel) [%] | cell count (A101D) [%] | cell count (A2058) [%] | cell count (A375) [%]
Cc1cc(Nc2cc(N3CCN(C)CC3)nc(/C=C/c3ccccc3)n2)n[nH]1 + c1cc(-c2cnn3cc(-c4ccc(OCCN5CCCCC5)cc4)cnc23)ccn1 [Dorsomorphin] (first compound 0.2 µM, partner dose 2 µM) | 41 | 68.3 | 45.1 | 73.9
Cc1cn(-c2cc(NC(=O)c3ccc(C)c(Nc4nccc(-c5cccnc5)n4)c3)cc(C(F)(F)F)c2)cn1 [nilotinib] + O=C(O)C(=O)Nc1sc2c(c1C(=O)O)CCNC2 [TCS401] (first compound 1 µM, partner dose 8.33333 µM) | 105 | 93.6 | 107 | 202
CC(C)C[C@H](NC(=O)[C@H](Cc1ccccc1)NC(=O)c1cnccn1)B(O)O [Bortezomib] + CC(C)CCN1c2nc(Nc3cc(F)c(O)c(F)c3)ncc2N(C)C(=O)C1C [BID1870] (first compound 0.005 µM, partner dose 1 µM) | 13.5 | 7.84 | 13.5 | 80.2
COc1ccc(C2=N[C@@H](c3ccc(Cl)cc3)[C@@H](c3ccc(Cl)cc3)N2C(=O)N2CCNC(=O)C2)c(OC(C)C)c1 [Nutlin-3] + CC(C)CCN1c2nc(Nc3cc(F)c(O)c(F)c3)ncc2N(C)C(=O)C1C [BID1870] (first compound 0.5 µM, partner dose 1 µM) | 76 | 61.6 | 99.5 | 76.6
Cc1cc(Nc2cc(N3CCN(C)CC3)nc(/C=C/c3ccccc3)n2)n[nH]1 + Oc1cc(-c2nc(-c3ccccc3)[nH]c2-c2ccncc2)ccc1Cl [L779450] (first compound 0.2 µM, partner dose 1 µM) | 68.4 | 69.1 | 55.5 | 80.7
Cc1cc(Nc2cc(N3CCN(C)CC3)nc(/C=C/c3ccccc3)n2)n[nH]1 + O=S(=O)(c1ccccc1)N(CC(F)(F)F)c1ccc(C(O)(C(F)(F)F)C(F)(F)F)cc1 [T0901317] (first compound 0.2 µM, partner dose 7 µM) | 67.5 | 85.7 | 82.7 | 80.4
COc1ccc(C2=N[C@@H](c3ccc(Cl)cc3)[C@@H](c3ccc(Cl)cc3)N2C(=O)N2CCNC(=O)C2)c(OC(C)C)c1 [Nutlin-3] + c1cc(-c2cnn3cc(-c4ccc(OCCN5CCCCC5)cc4)cnc23)ccn1 [Dorsomorphin] (first compound 0.5 µM, partner dose 2 µM) | 55.7 | 65.6 | 81.5 | 54.2
Cc1cn(-c2cc(NC(=O)c3ccc(C)c(Nc4nccc(-c5cccnc5)n4)c3)cc(C(F)(F)F)c2)cn1 [nilotinib] + O=c1cc(-c2cccc3c2Sc2ccccc2S3)oc(N2CCOCC2)c1 [KU55933] (first compound 1 µM, partner dose 5 µM) | 86.9 | 83.2 | 91.6 | 119
Cc1cc(Nc2cc(N3CCN(C)CC3)nc(/C=C/c3ccccc3)n2)n[nH]1 + Oc1nc(-c2ccc(C(F)(F)F)cc2)nc2c1CSCC2 [XAV939] (first compound 0.2 µM, partner dose 10 µM) | 110 | 87.6 | 69.3 | 91.4
Cc1cc(Nc2cc(N3CCN(C)CC3)nc(/C=C/c3ccccc3)n2)n[nH]1 + O=C1NC(=O)/C(=C/c2ccc(-c3ccc(F)cc3O)o2)S1 [AS252424] (first compound 0.2 µM, partner dose 5 µM) | 89.6 | 79.6 | 86.5 | 139
Cc1cn(-c2cc(NC(=O)c3ccc(C)c(Nc4nccc(-c5cccnc5)n4)c3)cc(C(F)(F)F)c2)cn1 [nilotinib] + N#Cc1c(O)c2c(-c3ccc(-c4ccccc4O)cc3)csc2[nH]c1=O [A769662] (first compound 1 µM, partner dose 10 µM) | 95.2 | 93 | 83.8 | 136
Cn1c(=O)n(-c2ccc(C(C)(C)C#N)cc2)c2c3cc(-c4cnc5ccccc5c4)ccc3ncc21 + N#Cc1c(O)c2c(-c3ccc(-c4ccccc4O)cc3)csc2[nH]c1=O [A769662] (first compound 0.02 µM, partner dose 10 µM) | 67.2 | 74.9 | 71.4 | 108
Cc1cn(-c2cc(NC(=O)c3ccc(C)c(Nc4nccc(-c5cccnc5)n4)c3)cc(C(F)(F)F)c2)cn1 [nilotinib] + c1cc(-c2cnn3cc(-c4ccc(OCCN5CCCCC5)cc4)cnc23)ccn1 [Dorsomorphin] (first compound 1 µM, partner dose 2 µM) | 62.5 | 78.4 | 87.8 | 98.6
Cc1cn(-c2cc(NC(=O)c3ccc(C)c(Nc4nccc(-c5cccnc5)n4)c3)cc(C(F)(F)F)c2)cn1 [nilotinib] + COC(=O)c1sccc1S(=O)(=O)Nc1ccc(Nc2ccccc2)cc1OC [GSK0660] (first compound 1 µM, partner dose 5 µM) | 111 | 86.8 | 115 | 110
COc1ccc(C2=N[C@@H](c3ccc(Cl)cc3)[C@@H](c3ccc(Cl)cc3)N2C(=O)N2CCNC(=O)C2)c(OC(C)C)c1 [Nutlin-3] + Cc1cc([N+](=O)[O-])ccc1NS(=O)(=O)c1cc(Cl)ccc1Cl [FH535] (first compound 0.5 µM, partner dose 5 µM) | 75.6 | 69.4 | 86.5 | 72.4
Cn1c(=O)n(-c2ccc(C(C)(C)C#N)cc2)c2c3cc(-c4cnc5ccccc5c4)ccc3ncc21 + O=C(O)C(=O)Nc1sc2c(c1C(=O)O)CCNC2 [TCS401] (first compound 0.02 µM, partner dose 8.33333 µM) | 60.9 | 77.6 | 71.6 | 113
Cc1cn(-c2cc(NC(=O)c3ccc(C)c(Nc4nccc(-c5cccnc5)n4)c3)cc(C(F)(F)F)c2)cn1 [nilotinib] + COc1cc(N2CCC(N3CCN(C)CC3)CC2)ccc1Nc1ncc(Cl)c(Nc2ccccc2S(=O)(=O)C(C)C)n1 [NVP-TAE684] (first compound 1 µM, partner dose 0.4 µM) | 79.9 | 96.7 | 93.5 | 109
Cc1cc(Nc2cc(N3CCN(C)CC3)nc(/C=C/c3ccccc3)n2)n[nH]1 + COc1ccc(-c2ccc3c(N4CCOCC4)nc(N4C[C@@H](C)O[C@@H](C)C4)nc3n2)cc1CO [KU0063794] (first compound 0.2 µM, partner dose 0.1 µM) | 72.4 | 75.8 | 65.7 | 86.9
CC(C)C[C@H](NC(=O)[C@H](Cc1ccccc1)NC(=O)c1cnccn1)B(O)O [Bortezomib] + COc1cc2ncnc(Nc3ccc(Oc4ccccc4)cc3)c2cc1OC [SrcI1] (first compound 0.005 µM, partner dose 10 µM) | 14.5 | 2.43 | 14.9 | 113
CC(C)C[C@H](NC(=O)[C@H](Cc1ccccc1)NC(=O)c1cnccn1)B(O)O [Bortezomib] + O=C(Nc1ccccc1)c1cc([N+](=O)[O-])ccc1Cl [GW9662] (first compound 0.005 µM, partner dose 10 µM) | 3.59 | 11 | 16.5 | 97.7
CC(C)C[C@H](NC(=O)[C@H](Cc1ccccc1)NC(=O)c1cnccn1)B(O)O [Bortezomib] + N#Cc1c(O)c2c(-c3ccc(-c4ccccc4O)cc3)csc2[nH]c1=O [A769662] (first compound 0.005 µM, partner dose 10 µM) | 8.64 | 8.32 | 5.11 | 103
Cc1cn(-c2cc(NC(=O)c3ccc(C)c(Nc4nccc(-c5cccnc5)n4)c3)cc(C(F)(F)F)c2)cn1 [nilotinib] + CCCCCCCCCCCC1=C(O)C(=O)C=C(O)C1=O [Embelin] (first compound 1 µM, partner dose 6 µM) | 74.8 | 75.8 | 91 | 109
Cc1cn(-c2cc(NC(=O)c3ccc(C)c(Nc4nccc(-c5cccnc5)n4)c3)cc(C(F)(F)F)c2)cn1 [nilotinib] + COc1ccc(COc2ccc(Cc3cnc(N)nc3N)cc2OC)cc1 [GW2580] (first compound 1 µM, partner dose 5 µM) | 72.4 | 92.6 | 117 | 95.3
Cn1c(=O)n(-c2ccc(C(C)(C)C#N)cc2)c2c3cc(-c4cnc5ccccc5c4)ccc3ncc21 + Oc1nc(-c2ccc(C(F)(F)F)cc2)nc2c1CSCC2 [XAV939] (first compound 0.02 µM, partner dose 10 µM) | 68.5 | 65.7 | 62.6 | 88.6
Cn1c(=O)n(-c2ccc(C(C)(C)C#N)cc2)c2c3cc(-c4cnc5ccccc5c4)ccc3ncc21 + O=S(=O)(c1ccccc1)N(CC(F)(F)F)c1ccc(C(O)(C(F)(F)F)C(F)(F)F)cc1 [T0901317] (first compound 0.02 µM, partner dose 7 µM) | 46.7 | 64.6 | 60 | 95.5
Cn1c(=O)n(-c2ccc(C(C)(C)C#N)cc2)c2c3cc(-c4cnc5ccccc5c4)ccc3ncc21 + COc1ccc2c(c1)CCC1C2CCC2(C)C(NCCCCCCN3C(=O)C=CC3=O)CCC12 [U73122] (first compound 0.02 µM, partner dose 2 µM) | 97.3 | 66.3 | 40.4 | 65.9
Cn1c(=O)n(-c2ccc(C(C)(C)C#N)cc2)c2c3cc(-c4cnc5ccccc5c4)ccc3ncc21 + CCc1ccc(CCOc2ccc(CC3SC(=O)NC3=O)cc2)nc1 [pioglitazone] (first compound 0.02 µM, partner dose 10 µM) | 86.3 | 83.8 | 77 | 88.1
